For nine compounds, cell count results are on record in the supplement of paper PMC4604168 (melanoma cell lines).

Some test systems named below: A101D; A2058; A375.
What all share (experiment): cell count relative to DMSO control; melanoma cells; higher = more viable cells
Common to all, as to conditions: library dose: standard library concentration; 72 h

SMILES strings stand for the structures. Some of the results follow. Most values come without repeats; read them as rough.
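Further: cells treated in 1,536-well plates, then fixed and DAPI-stained, with nuclei counted from automated high-throughput microscope images.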

Regarding `CO[C@@H]1[C@H](N(C)C(=O)c2ccccc2)C[C@H]2O[C@]1(C)n1c3ccccc3c3c4c(c5c6ccccc6n2c5c31)C(=O)NC4` [Midostaurin] + CN(NC(=O)CC(=O)NN(C)C(=S)c1ccccc1)C(=S)c1ccccc1 [STA4783] (first compound 0.4 µM, partner dose 0.03 µM), the cell count with A101D worked out at 47.5%; in the experiment on A2058, 5.3%; in the experiment with A375 it was 86.5%.

Regarding `CO[C@@H]1[C@H](N(C)C(=O)c2ccccc2)C[C@H]2O[C@]1(C)n1c3ccccc3c3c4c(c5c6ccccc6n2c5c31)C(=O)NC4` [Midostaurin] + Cn1cncc1[C@@](N)(c1ccc(Cl)cc1)c1ccc2c(c1)c(-c1cccc(Cl)c1)cc(=O)n2C [tipifarnib] (first compound 0.4 µM, partner dose 0.05 µM), the cell count is 54.2% in the experiment with A101D, 39.2% with A2058 and 65.8% in the experiment on A375.

Take `C=CCn1c(=O)c2cnc(Nc3ccc(N4CCN(C)CC4)cc3)nc2n1-c1cccc(C(C)(C)O)n1` + Cn1cncc1[C@@](N)(c1ccc(Cl)cc1)c1ccc2c(c1)c(-c1cccc(Cl)c1)cc(=O)n2C [tipifarnib] (first compound 0.1 µM, partner dose 0.05 µM): the cell count was 46.7% with A101D, 78.6% in the experiment on A2058 and 75.7% in the experiment on A375.

Regarding `NC(=O)Nc1cc(-c2cccc(F)c2)sc1C(=O)N[C@H]1CCCNC1` + NCC(=O)Nc1ccc(-n2nc(C(F)(F)F)cc2-c2ccc3c(ccc4ccccc43)c2)cc1 [OSU03012] (first compound 0.1 µM, partner dose 5 µM), the figures for the cell count in the experiment on A101D, with A2058 and in the experiment on A375 were 66.4%, 65% and 47.9%, respectively.

For `NC(=O)Nc1cc(-c2cccc(F)c2)sc1C(=O)N[C@H]1CCCNC1` + CN(C)S(=O)(=O)c1ccc2c(c1)/C(=C/c1cc3c([nH]1)CCCC3)C(=O)N2 [SU6656] (first compound 0.1 µM, partner dose 2 µM), the cell count in the experiment on A101D worked out at 50.9%; in the experiment with A2058 it was 60%; with A375, 59%.

For `Cc1nc(Nc2ncc(C(=O)Nc3c(C)cccc3Cl)s2)cc(N2CCN(CCO)CC2)n1` [dasatanib] + O=C(O)c1ccc(-c2c[nH]c3ncc(-c4ccccc4)cc23)cc1C1CCCC1 [GSK650394] (first compound 0.02 µM, partner dose 0.8 µM), the cell count was found to be 63.2% with A101D, 62.7% with A2058 and 69.5% with A375.

In the case of `CO[C@@H]1[C@H](N(C)C(=O)c2ccccc2)C[C@H]2O[C@]1(C)n1c3ccccc3c3c4c(c5c6ccccc6n2c5c31)C(=O)NC4` [Midostaurin] + c1cc(-c2cnn3cc(-c4ccc(OCCN5CCCCC5)cc4)cnc23)ccn1 [Dorsomorphin] (first compound 0.4 µM, partner dose 2 µM), the cell count in the experiment on A101D was found to be 50.5%; in the experiment on A2058, 61.3%; in the experiment with A375, 80%.

For `NC(=O)Nc1cc(-c2cccc(F)c2)sc1C(=O)N[C@H]1CCCNC1` + COc1cc2c(Oc3ccc4[nH]c(C)cc4c3F)ncnc2cc1OCCCN1CCCC1 [cediranib] (first compound 0.1 µM, partner dose 2 µM), the cell count is 60.3% with A101D, 51% in the experiment with A2058 and 54.6% with A375.

Consider `C=CCn1c(=O)c2cnc(Nc3ccc(N4CCN(C)CC4)cc3)nc2n1-c1cccc(C(C)(C)O)n1` + O=C(Nc1cccc(Cl)c1)Nc1ncc(CCNc2ncnc3ccsc23)s1 [SNS314] (first compound 0.1 µM, partner dose 0.004 µM), for which the cell count in the experiment on A101D turned out to be 53.5%; in the experiment on A2058, 66.3%; with A375, 58.5%.
